Reference: paper PMC6919601, “Identification of Plasmodium dipeptidyl aminopeptidase allosteric inhibitors by high throughput screening” (PLoS ONE, 2019)
Among all 110,000 compounds or so, about 230 (0.21%) showed an effect of 50% or more. Some of the results follow.

Target: DPAP1 (Plasmodium falciparum, UniProt Q8IIJ9)
Experiment: primary screen, percent inhibition; read by cleavage of a fluorogenic dipeptide substrate; higher = more effect of the substance
Set-up: species or system P. falciparum D10 trophozoite lysates; single well
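Note: 30 min substrate incubation versus DMSO and 10 µM JCP410 controls.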

Sequence of DPAP1 (Q8IIJ9 whole entry, looked up): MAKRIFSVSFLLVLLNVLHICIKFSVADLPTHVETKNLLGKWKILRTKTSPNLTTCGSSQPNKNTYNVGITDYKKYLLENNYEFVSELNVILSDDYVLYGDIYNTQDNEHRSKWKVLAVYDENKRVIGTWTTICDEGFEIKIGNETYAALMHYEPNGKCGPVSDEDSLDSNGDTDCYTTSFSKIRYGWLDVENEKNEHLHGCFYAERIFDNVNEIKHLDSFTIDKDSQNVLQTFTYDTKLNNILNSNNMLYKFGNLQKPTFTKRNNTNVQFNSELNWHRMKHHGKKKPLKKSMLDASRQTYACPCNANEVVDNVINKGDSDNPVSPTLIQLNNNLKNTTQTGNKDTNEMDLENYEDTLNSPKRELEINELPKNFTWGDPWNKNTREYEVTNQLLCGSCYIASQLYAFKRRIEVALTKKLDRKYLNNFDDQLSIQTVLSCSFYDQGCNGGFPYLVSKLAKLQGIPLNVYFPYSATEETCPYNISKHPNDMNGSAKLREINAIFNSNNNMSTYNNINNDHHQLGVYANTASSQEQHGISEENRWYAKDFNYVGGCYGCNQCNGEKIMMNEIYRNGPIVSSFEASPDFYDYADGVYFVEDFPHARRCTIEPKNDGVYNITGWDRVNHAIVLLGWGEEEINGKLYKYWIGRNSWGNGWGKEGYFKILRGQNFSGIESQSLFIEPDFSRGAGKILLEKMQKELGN

Structure (SMILES) | % Inhibition @ 10 uM [%]
Cc1ccc(C)c(OCc2ccc(C(=O)O)o2)c1 | -3.13
CCCSc1nc2ccc(C)cc2cc1C#N | -0.864
CCNc1nc2nc(O)cc(O)c2s1 | 3.39
CC(=O)N1CCC(N2CCN(C/C=C/c3ccccc3)CC2)CC1 | -0.132
Cc1ccc(C(=O)Nc2ccccc2C(N)=O)o1 | -6.24
COc1cccc(Cn2c(C)c(CNCCc3ccccc3C)c(C(=O)O)c2C)c1 | -7.36
Cc1ccc(CN(Cc2ccco2)C(=O)c2ccccc2Br)cc1 | -0.45
CCOC(=O)N1CCC(NCCc2ccccc2F)CC1 | -3.27
CCC(C)c1ccc(NC(=O)c2ccc(Br)o2)cc1 (stereo not drawn) | 1.15
Cc1cc(NC(=O)C2CCCN2S(=O)(=O)c2ccc(Cl)cc2)ccc1Br (stereo not drawn) | 0.291
COC(=O)C1=CN(CCC23CC4CC(CC(C4)C2)C3)C=C(C(=O)OC)C1c1ccc2c(c1)OCO2 | -4.04
CCSc1nc2c(c(=O)n(C)c(=O)n2C)n1Cc1c(F)cccc1Cl | -2.77
O=C(Cc1ccccc1)N1CCC(c2ccccc2)C1 (stereo not drawn) | -3.38
CC1CCc2c(sc(NC(=O)Cn3c(-c4nonc4N)nc4ccccc43)c2C#N)C1 (stereo not drawn) | -4.04
Cc1ccc(S(=O)(=O)NCc2ccc(C(=O)NCCC(C)C)cc2)cc1 | -5.67
O/N=C(\C=C\c1ccccc1)c1ccccc1 | -0.128
CC1=C(C(=O)NCC(C)c2ccccc2)C2(CCCCC2)OC1=O (stereo not drawn) | -1.89
CC1=CC(c2ccc(Cl)cc2)n2nc(N3C(=O)c4ccccc4C3=O)nc2N1 (stereo not drawn) | 2.31
CSc1ncc(C(=O)NCc2ccc3c(c2)OCO3)c(C)n1 | -2.15
Cc1ccc(C(=O)NC(C)c2ccccc2)o1 (stereo not drawn) | -3.71
CC(CCc1ccco1)NC(=O)c1cc2c(-c3ccccc3F)nn(C)c2s1 (stereo not drawn) | 1.24
Cc1ccc(Cl)cc1S(=O)(=O)N1CCC(C(=O)O)CC1 | -3.08
c1cn2c3c(n1)CCCc3c1cc(C34CC5CC(CC(C5)C3)C4)ccc12 | -6.71

Structure (SMILES) | % Inhibition @ 10 uM [%]
Cc1ccc2nc(NC(=O)Nc3ccc(F)cc3)sc2c1 | 5.49
NC(=O)c1c(NC(=O)c2ccc(Cl)c(Cl)c2)sc2c1CCC2 | 0.331
COc1cc(C2CC(=O)NC3=C2C(=O)CC(C)(C)C3)cc(OC)c1OC (stereo not drawn) | -7.27
CCOC(=O)C1(C#N)C2(CCCCCC2)C1(C#N)C(=O)OCC (stereo not drawn) | -3.58
COc1cc(C2NC(=O)NC(C)=C2C(=O)Nc2ccc(C)cc2)cc(OC)c1OC (stereo not drawn) | -1.55
CN(C)CCCN1C(=O)C(O)=C(C(=O)c2ccccc2)C1c1cccnc1 (stereo not drawn) | -1.6
Cc1ccc2oc(=O)c3cc(C(=O)N4CCOCC4)sc3c2c1 | 3.6
c1ccc(-n2nnnc2SCCSc2nnnn2-c2ccccc2)cc1 | -5.35
c1ccc(CSc2ncn(-c3ccccc3)n2)cc1 | 2.79
Cc1ccc(NC(=O)CSc2ncn(-c3ccccc3)n2)c(C)c1 | 2.82
Cc1c(Cl)cccc1NCc1ccc(OCc2ccccc2)cc1 | -3.8
CC1CCN(C2CCN(C)CC2)CC1 | -1.82
Oc1cccc(-c2nc(S)c3c(n2)Oc2ccccc2C3)c1 | 45.8
O=C(COc1ccc(Cl)cc1Cl)Nc1cccc(Br)c1 | 1.7
c1cncc(-c2cc(N3CCOCC3)c3ccccc3n2)c1 | -3.8
O=C(Cn1ncc2c1-c1ccccc1OC2)N1CCC(N2CCCCC2)CC1 | -4.21
COc1ccc(-c2noc(CN(C(=O)CCc3ccccc3)C(C)C)n2)cc1 | 0.232
CC(C)n1c(Br)nc2c1c(=O)n(C)c(=O)n2C | -3.27
O=P(OCCN1CCOCC1)(c1ccccc1)c1ccccc1 | 2.62
COCCCNC(=O)COc1ccc2c(c1)C(=O)CC(C)(C)O2 | 0.0654
COCCOC(=O)Nc1nc2ccc(OC)cc2s1 | 0.266
CCOc1ccc(NC(=O)CN(C2CCCCC2)S(C)(=O)=O)cc1 | 0.145
CCc1cc2c(-n3nc(C)cc3C)ncnc2s1 | -2.42

Structure (SMILES) | % Inhibition @ 10 uM [%]
CC12CN3CC(C)(CN(C1)C31CCCC1)C2O (stereo not drawn) | -4.03
Cc1ccc(C)n1Cc1ccc(Cl)cc1 | -2.8
O=C(c1noc2c1COc1ccccc1-2)N(Cc1ccccc1)Cc1cccs1 | 3.3
C=C(C)[C@@H]1CC=C(CN2CCN(C/C=C/c3ccccc3)CC2)CC1 | 7.28
O=C(Oc1ccccc1)SC1CCS(=O)(=O)C1 (stereo not drawn) | -5.28
c1ccc(-c2nc(-c3ccccn3)c(-c3ccccn3)[nH]2)cc1 | 5.49
COc1ccccc1C(=O)Nc1c2c(nn1-c1ccc(C)cc1C)CS(=O)(=O)C2 | 3.08
CNC(=O)CCc1nc(-c2ccc(C(C)(C)C)cc2)no1 | 0.366
O=C(NCc1ccco1)c1cccc(Cl)c1 | 0.912
O=C(Cc1ccccc1)N1CCN(Cc2c[nH]c3ccccc23)CC1 | 0.147
COc1ccc(-c2cn3nc(N4CCC(C(=O)NCCC5=CCCCC5)CC4)sc3n2)cc1 | -0.878
CCN(CC)CC(C)CNC(=O)C1CCN(S(=O)(=O)c2ccc(C)cc2)CC1 (stereo not drawn) | -1.34
Cc1nnc(N2CCC(C(=O)NCCc3ccc(Cl)cc3)CC2)c2nn(-c3ccccc3)c(C)c12 | 0.58
CC(=O)N1CCN(Cc2ccc(Cl)cc2Cl)CC1 | -0.603
COC(=O)c1c(NC(=O)COc2ccccc2C)sc(C)c1C | -6.6
CCc1ccc(-c2csc(N)n2)cc1 | -0.807
C1=C(c2ccccc2)Nc2nc3ccccc3n2C1c1ccccc1 (stereo not drawn) | 2.86
Cc1ccc(S(=O)(=O)c2cnc3ccccc3c2O)cc1C | 1.42
COc1ccc(OCC(O)CN2CCN(C)CC2)cc1 (stereo not drawn) | 0.51
c1sc2c(c1CN1CCOCC1)CCCC2 | 0.124
CC(C)(C)c1ccc(C(=O)NCCN2CCOCC2)cc1 | 5.09
CCN(CC)C(=O)c1ccc(Oc2nnnn2-c2ccccc2)c(OC)c1 | 1.84
Cc1ccc(OCC(=O)Nc2cccc(C)c2)cc1 | 1.59
